This list was built around the results that the source calls inconclusive (neither active nor inactive); the mix of calls is not that of the screen. Where a call stands in place of a potency, no number is given. For some of these results: A potency beside an inconclusive call is a rough fit, not a confirmed value. Active and inactive are the calls of the source. Calls come from the whole dose curve; as a rule, active = well fitted curve in the direction sought with a large enough effect in the repeat runs; inconclusive = weak or mixed curves; inactive = no such curve, though single readings can be large; an effect the other way counts as inactive or inconclusive.
How the values were obtained:
[1] = qHTS assay to identify small molecule antagonists of the constitutive androstane receptor (CAR) signaling pathway - cell viability counter screen (AID 1224837); note: series mostly up to about 92 µM; nearly all actives have a fitted effect of over 45% in size
How it was run: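 Cells are seeded, rested 4 hr at 37 C/5% CO2, dosed with compound (15-point series) and 50 nM CITCO, incubated a further 23 hr, and then CellTiter-Fluor reagent is added before fluorescence is read. The line is HepG2 with stable hCAR and CYP2B6-2.2kb.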

[2] = qHTS assay to identify small molecule HDAC inhibitors - cell viability counter screen (AID 1259365); note: series mostly up to about 92 µM; nearly all actives have a fitted effect of over 50% in size
How it was run: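 Following a 2hr exposure of overnight-plated wild-type HCT-116 cells to DMSO-delivered compounds, CellTiter-Glo was added and luminescence recorded after 30min at room temperature.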

[3] = qHTS RealTime-Glo MT Cell Viability Assay in HepG2 cells - 24 hour (AID 1224867); note: nearly all actives have a fitted effect of over 50% in size
How it was run: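 Cell number in HepG2 cultures estimated from NanoLuc luminescence generated by metabolic reduction of a prosubstrate by living cells. The homogeneous, nonlytic format allowed repeated reads at 0, 8, 16, 24, 32 and 40 h of compound exposure.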

[4] = qHTS assay to identify small molecule agonists of the estrogen related receptor signaling pathway with the pleiotropic PPARgamma coactivator (PGC) (AID 1224823); note: potency is the fitted concentration of half-maximal effect
How it was run: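 Luminescence from One-Glo reagent (30 min, room temperature) was read after 18 h compound treatment at 37 C of PGC/ERR cells plated 6 h beforehand; compounds delivered in DMSO by pin tool.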
Tags give direction and shape of the fitted curve.

c1ccc2c(c1)CCCC2C1=NCCN1 (centres undefined)
Potency [1]: inactive

CC(C)CCCC(C)N (centres undefined)
Potency [2]: inactive

C/C(=N\O)c1ccc(OCC(=O)N2CCCCC2)cc1
Potency [3]: inactive

COc1ccc(/C=C2\COc3ccc(C)cc3C2=O)cc1O
Potency [4]: inconclusive: 1.19 µM [activator, partial curve, poor fit]
